Source: the supplement of paper PMC8728848
This is one part of the list.

Assays:
Assay in all cases: glycan array binding signal (z-score within array); higher = stronger binding
Settings in all cases: glycan notation: IUPAC condensed, linker removed
Gal(b1-3)GalNAc = biological target: Gal(b1-3)GalNAc
Summary of the method: (§1)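 From the Consortium for Functional Glycomics database, 3228 arrays were curated, keeping only those whose protein sequence was available. Binding is given as a within-array Z-score averaged across arrays sharing a protein sequence and across linkers. Negative Z-scores can be read as non-binding.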

[1] = biological target: Gal(b1-3)GalNAc(b1-3)Gal(a1-4)Gal(b1-4)Glc
Summary of the method: as §1

[2] = biological target: Gal(b1-3)GalNAc(b1-3)Gal(b1-4)Glc
Summary of the method: as §1

[3] = biological target: Gal(b1-3)GalNAc(b1-3)Gal(b1-4)GlcNAc
Summary of the method: as §1

[4] = biological target: Gal(b1-3)GalNAc(b1-4)Gal(b1-4)Glc
Summary of the method: as §1

[5] = biological target: Gal(b1-3)GalNAc(b1-4)[Neu5Ac(a2-3)]Gal(b1-4)Glc
Summary of the method: as §1

[6] = biological target: Gal(b1-3)GlcNAc(b1-3)Gal(b1-3)GlcNAc
Summary of the method: as §1

[7] = biological target: Gal(b1-3)[Fuc(a1-4)]GlcNAc
Summary of the method: as §1

[8] = biological target: Gal(b1-3)[Fuc(a1-4)]GlcNAc(b1-3)Gal(b1-3)[Fuc(a1-4)]GlcNAc
Summary of the method: as §1

[9] = biological target: Gal(b1-3)[Fuc(a1-4)]GlcNAc(b1-3)Gal(b1-4)GlcNAc
Summary of the method: as §1

[10] = biological target: Gal(b1-3)[Fuc(a1-4)]GlcNAc(b1-3)Gal(b1-4)[Fuc(a1-3)]GlcNAc
Summary of the method: as §1

[11] = biological target: Gal(b1-3)[GlcNAc(b1-6)]GalNAc
Summary of the method: as §1

[12] = biological target: Gal(b1-3)[GlcNAc(b1-6)]GlcNAc
Summary of the method: as §1

[13] = biological target: Gal(b1-3)[Neu5Ac(a2-6)]GalNAc
Summary of the method: as §1

[14] = biological target: Gal(b1-3)[Neu5Ac(a2-6)]GlcNAc
Summary of the method: as §1

[15] = biological target: Gal(b1-3)[Neu5Ac(a2-6)]GlcNAc(a1-4)Gal(b1-4)Glc
Summary of the method: as §1

[16] = biological target: Gal(b1-3)[Neu5Ac(b2-6)]GlcNAc
Summary of the method: as §1

[17] = biological target: Gal(b1-4)GalNAc(a1-3)[Fuc(a1-2)]Gal(b1-4)GlcNAc
Summary of the method: as §1

[18] = biological target: Gal(b1-4)GalNAc(b1-3)[Fuc(a1-2)]Gal(b1-4)GlcNAc
Summary of the method: as §1

Gal(b1-4)Glc = biological target: Gal(b1-4)Glc
Summary of the method: as §1

Gal(b1-4)Glc6S = biological target: Gal(b1-4)Glc6S
Summary of the method: as §1

Gal(b1-4)GlcNAc = biological target: Gal(b1-4)GlcNAc
Summary of the method: as §1

[19] = biological target: Gal(b1-4)GlcNAc(b1-2)Man(a1-3)[Gal(b1-4)GlcNAc(b1-2)Man(a1-6)]Man(b1-4)GlcNAc(b1-4)GlcNAc
Summary of the method: as §1

[20] = biological target: Gal(b1-4)GlcNAc(b1-3)Gal(b1-3)GlcNAc
Summary of the method: as §1

[21] = biological target: Gal(b1-4)GlcNAc(b1-3)Gal(b1-4)Glc
Summary of the method: as §1

[22] = biological target: Gal(b1-4)GlcNAc(b1-3)Gal(b1-4)GlcNAc
Summary of the method: as §1

[23] = biological target: Gal(b1-4)GlcNAc(b1-3)Gal(b1-4)GlcNAc(b1-3)Gal(b1-4)GlcNAc
Summary of the method: as §1

[24] = biological target: Gal(b1-4)GlcNAc(b1-3)Gal(b1-4)[Fuc(a1-3)]GlcNAc(b1-3)Gal(b1-4)[Fuc(a1-3)]GlcNAc
Summary of the method: as §1

[25] = biological target: Gal(b1-4)GlcNAc(b1-3)GalNAc
Summary of the method: as §1

[26] = biological target: Gal(b1-4)GlcNAc(b1-3)[Gal(b1-4)GlcNAc(b1-6)]GalNAc
Summary of the method: as §1

[27] = biological target: Gal(b1-4)GlcNAc(b1-6)GalNAc
Summary of the method: as §1

[28] = biological target: Gal(b1-4)GlcNAc(b1-6)[Gal(b1-3)]GalNAc
Summary of the method: as §1

[29] = biological target: Gal(b1-4)GlcNAc(b1-6)[Gal(b1-3)]GlcNAc
Summary of the method: as §1

Gal3S(b1-3)GalNAc = biological target: Gal3S(b1-3)GalNAc
Summary of the method: as §1

Gal3S(b1-3)GlcNAc = biological target: Gal3S(b1-3)GlcNAc
Summary of the method: as §1

[30] = biological target: Gal3S(b1-3)[Fuc(a1-4)]GlcNAc
Summary of the method: as §1

Gal3S(b1-4)Glc = biological target: Gal3S(b1-4)Glc
Summary of the method: as §1

Gal3S(b1-4)Glc6S = biological target: Gal3S(b1-4)Glc6S
Summary of the method: as §1

Gal3S(b1-4)GlcNAc = biological target: Gal3S(b1-4)GlcNAc
Summary of the method: as §1

Gal3S(b1-4)GlcNAc6S = biological target: Gal3S(b1-4)GlcNAc6S
Summary of the method: as §1

Gal3S6S(b1-4)GlcNAc = biological target: Gal3S6S(b1-4)GlcNAc
Summary of the method: as §1

Gal3S6S(b1-4)GlcNAc6S = biological target: Gal3S6S(b1-4)GlcNAc6S
Summary of the method: as §1

Gal4S(b1-4)GlcNAc = biological target: Gal4S(b1-4)GlcNAc
Summary of the method: as §1

Gal4S6S(b1-4)GlcNAc = biological target: Gal4S6S(b1-4)GlcNAc
Summary of the method: as §1

Gal6S(b1-4)Glc = biological target: Gal6S(b1-4)Glc
Summary of the method: as §1

Gal6S(b1-4)Glc6S = biological target: Gal6S(b1-4)Glc6S
Summary of the method: as §1

Gal6S(b1-4)GlcNAc = biological target: Gal6S(b1-4)GlcNAc
Summary of the method: as §1

GalNAc(a1-3)Gal = biological target: GalNAc(a1-3)Gal
Summary of the method: as §1

GalNAc(a1-3)GalNAc = biological target: GalNAc(a1-3)GalNAc
Summary of the method: as §1

[31] = biological target: GalNAc(b1-3)Gal(a1-4)Gal(b1-4)GlcNAc
Summary of the method: as §1

GalNAc(b1-4)GlcNAc = biological target: GalNAc(b1-4)GlcNAc
Summary of the method: as §1

Glc(a1-4)Glc = biological target: Glc(a1-4)Glc
Summary of the method: as §1

Glc(a1-6)Glc(a1-6)Glc = biological target: Glc(a1-6)Glc(a1-6)Glc
Summary of the method: as §1

Glc(b1-4)Glc = biological target: Glc(b1-4)Glc
Summary of the method: as §1

Glc(b1-6)Glc = biological target: Glc(b1-6)Glc
Summary of the method: as §1

GlcA(b1-3)Gal = biological target: GlcA(b1-3)Gal
Summary of the method: as §1

GlcA(b1-6)Gal = biological target: GlcA(b1-6)Gal
Summary of the method: as §1

[32] = biological target: GlcNAc(a1-3)Gal(b1-4)GlcNAc
Summary of the method: as §1

[33] = biological target: GlcNAc(a1-6)Gal(b1-4)GlcNAc
Summary of the method: as §1

[34] = biological target: GlcNAc(b1-2)Gal(b1-3)GlcNAc
Summary of the method: as §1

B1: PEB3 Cj0289c (Campylobacter jejuni), Q9PIK7 (protein)
chain: MDVNLYGPGGPHTALKDIANKYSEKTGVKVNVNFGPQATWFEKAKKDADILFGASDQSALAIASDFGKDFNVSKIKPLYFREAIILTQKGNPLKIKGLKDLANKKVRIVVPEGAGKSNTSGTGVWEDMIGRTQDIKTIQNFRNNIVAFVPNSGSARKLFAQDQADAWITWIDWSKSNPDIGTAVAIEKDLVVYRTFNVIAKEGASKETQDFIAYLSSKEAKEIFKKYGWRE
glycan array binding signal (z-score) (Gal(b1-3)GalNAc): -0.213 | glycan array binding signal (z-score) [1]: -0.391 | glycan array binding signal (z-score) [2]: -0.312 | glycan array binding signal (z-score) [3]: -0.308 | glycan array binding signal (z-score) [4]: -0.315 | glycan array binding signal (z-score) [5]: -0.412 | glycan array binding signal (z-score) [6]: -0.469 | glycan array binding signal (z-score) [7]: -0.348 | glycan array binding signal (z-score) [8]: -0.393 | glycan array binding signal (z-score) [9]: -0.333 | glycan array binding signal (z-score) [10]: -0.367 | glycan array binding signal (z-score) [11]: -0.25 | glycan array binding signal (z-score) [12]: -0.285 | glycan array binding signal (z-score) [13]: -0.409 | glycan array binding signal (z-score) [14]: -0.33 | glycan array binding signal (z-score) [15]: -0.338 | glycan array binding signal (z-score) [16]: -0.261 | glycan array binding signal (z-score) [17]: -0.402 | glycan array binding signal (z-score) [18]: -0.381 | glycan array binding signal (z-score) (Gal(b1-4)Glc): -0.038 | glycan array binding signal (z-score) (Gal(b1-4)Glc6S): 0.339 | glycan array binding signal (z-score) (Gal(b1-4)GlcNAc): -0.277 | glycan array binding signal (z-score) [19]: -0.353 | glycan array binding signal (z-score) [20]: -0.218 | glycan array binding signal (z-score) [21]: -0.373 | glycan array binding signal (z-score) [22]: -0.388 | glycan array binding signal (z-score) [23]: -0.417 | glycan array binding signal (z-score) [24]: -0.353 | glycan array binding signal (z-score) [25]: -0.375 | glycan array binding signal (z-score) [26]: -0.307 | glycan array binding signal (z-score) [27]: -0.324 | glycan array binding signal (z-score) [28]: -0.451 | glycan array binding signal (z-score) [29]: -0.316 | glycan array binding signal (z-score) (Gal3S(b1-3)GalNAc): -0.22 | glycan array binding signal (z-score) (Gal3S(b1-3)GlcNAc): 0.208 | glycan array binding signal (z-score) [30]: -0.128 | glycan array binding signal (z-score) (Gal3S(b1-4)Glc): 0.858 | glycan array binding signal (z-score) (Gal3S(b1-4)Glc6S): 1.38 | glycan array binding signal (z-score) (Gal3S(b1-4)GlcNAc): 0.177 | glycan array binding signal (z-score) (Gal3S(b1-4)GlcNAc6S): 0.607 | glycan array binding signal (z-score) (Gal3S6S(b1-4)GlcNAc): 0.902 | glycan array binding signal (z-score) (Gal3S6S(b1-4)GlcNAc6S): 2.8 | glycan array binding signal (z-score) (Gal4S(b1-4)GlcNAc): 0.039 | glycan array binding signal (z-score) (Gal4S6S(b1-4)GlcNAc): 0.469 | glycan array binding signal (z-score) (Gal6S(b1-4)Glc): 0.401 | glycan array binding signal (z-score) (Gal6S(b1-4)Glc6S): 1.36 | glycan array binding signal (z-score) (Gal6S(b1-4)GlcNAc): 0.119 | glycan array binding signal (z-score) (GalNAc(a1-3)Gal): -0.138 | glycan array binding signal (z-score) (GalNAc(a1-3)GalNAc): -0.221 | glycan array binding signal (z-score) [31]: -0.356 | glycan array binding signal (z-score) (GalNAc(b1-4)GlcNAc): -0.259 | glycan array binding signal (z-score) (Glc(a1-4)Glc): -0.142 | glycan array binding signal (z-score) (Glc(a1-6)Glc(a1-6)Glc): -0.314 | glycan array binding signal (z-score) (Glc(b1-4)Glc): 0.314 | glycan array binding signal (z-score) (Glc(b1-6)Glc): 0.09 | glycan array binding signal (z-score) (GlcA(b1-3)Gal): 0.158 | glycan array binding signal (z-score) (GlcA(b1-6)Gal): 0.216 | glycan array binding signal (z-score) [32]: -0.304 | glycan array binding signal (z-score) [33]: -0.094 | glycan array binding signal (z-score) [34]: -0.446
